For 91 molecules, Potency results are on record in PubChem BioAssay AID360 (National Center for Advancing Translational Sciences (NCATS), 2006).

Structures are written as SMILES. Out of some 48,000 compounds screened, about 550 (1.1%) were called active. About 4% were inconclusive and are not listed. No stated cut-off is given here; in the data, active means potency below about 15 µM; inconclusive means mostly about 16 µM to 33 µM; inactive means weaker than that. The list shows a part of the results. Where only a bound is given, the exact number is not on record here.
Potency means the concentration at half of the fitted maximal effect.

Sequence of UniProt P04062 (P04062 whole entry, looked up): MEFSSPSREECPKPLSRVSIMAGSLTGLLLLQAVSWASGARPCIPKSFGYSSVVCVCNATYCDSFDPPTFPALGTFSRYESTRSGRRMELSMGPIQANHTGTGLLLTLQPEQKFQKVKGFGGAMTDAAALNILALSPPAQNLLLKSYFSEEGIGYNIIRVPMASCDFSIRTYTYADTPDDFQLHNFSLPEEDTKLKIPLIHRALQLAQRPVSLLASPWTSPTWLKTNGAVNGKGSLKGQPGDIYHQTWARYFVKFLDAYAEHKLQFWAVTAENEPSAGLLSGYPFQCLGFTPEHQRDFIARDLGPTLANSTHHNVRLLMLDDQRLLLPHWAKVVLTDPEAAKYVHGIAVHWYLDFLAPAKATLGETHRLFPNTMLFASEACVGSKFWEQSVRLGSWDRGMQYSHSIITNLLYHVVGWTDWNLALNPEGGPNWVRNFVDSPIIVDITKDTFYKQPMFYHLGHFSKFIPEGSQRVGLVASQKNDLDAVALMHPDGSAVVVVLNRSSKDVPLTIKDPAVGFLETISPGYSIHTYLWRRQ

The target of the assay is Lysosomal acid glucosylceramidase (Homo sapiens) (UniProt P04062). Description: Glucocerebrosidase.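 Further: the screen sought inhibitors.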 To be noted: purified enzyme, resorufin glucoside fluorescence (screen aimed at inhibitors), 20 min. An outline of the steps:
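Compounds titrated against 0.2 nM normal enzyme, 30 uM resorufin beta-D-glucopyranoside substrate, citrate/phosphate buffer with taurocholate and tween-20, pH 5.9. Reaction ran 20 min at room temperature; fluorescence (Ex 548/Em 600) gave AC50.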
Regarding `Cc1c(NC(=O)CSc2ccc3c(c2)OCCO3)c(=O)n(-c2ccccc2)n1C`, the Potency is inactive: > 76.9 µM.
With `Cc1cccc2nc(CSc3nnnn3-c3ccccc3)cn12`, the Potency is inactive: > 76.9 µM.
The result for `CN(C)S(=O)(=O)c1cccc(-c2nnc(SCc3cc(Cl)cc4c3OCOC4)n2N)c1` reads inactive: > 76.9 µM; that for `CC(C)(C)c1ccc(OCCn2ccccc2=O)cc1`, inactive: > 76.9 µM.
The result for `CCc1noc(C)c1C(=O)N1CC(C)OC(C)C1` (stereo unspecified) reads inactive: > 76.9 µM; that for `COc1cc(N)cc(NC(=O)c2ccncc2)c1`, inactive: > 76.9 µM; that for `Cc1c(C(=O)N2CCCC2)nnn1-c1nonc1N`, inactive: > 76.9 µM.
To `O=C(Nc1ccc(Cl)cc1C(=O)Nc1ccc(Br)cn1)c1ccco1` belongs inactive: > 76.9 µM; to `COc1ccccc1N(CN1CCCC1=O)C(=O)c1c(F)cccc1F`, inactive: > 76.9 µM.
For the molecule `O=S1(=O)N=C(N2CCOCC2)c2ccccc21`, the Potency is inactive: > 76.9 µM.
In the case of `Cc1nnc(NC(=O)C2CCCN(c3ncccn3)C2)s1` (stereo unspecified), the Potency was inactive: > 76.9 µM.
The result for `CCC(=O)N1CCc2cc(S(=O)(=O)NCCCOC)ccc21` reads inactive: > 76.9 µM.
In the case of `CC(=O)N(C)c1nc(-c2ccc(Cl)cc2)cs1`, the Potency was inactive: > 76.9 µM.
To `CCOC(=O)NC(c1ccccc1)C1CCCCC1=O` (stereo unspecified) belongs inactive: > 76.9 µM.
Take `CCOc1cc(N2CCOCC2)c(OCC)cc1NC(=O)CCC1CCCC1`: the Potency was inactive: > 76.9 µM.
As for `CCc1cc(C(=O)N2CCOCC2)c(NC2=NS(=O)(=O)c3ccccc32)s1`, the Potency was inactive: > 76.9 µM.
For `Cn1c(=O)c2cc(S(=O)(=O)NCCC(=O)Nc3ccccc3F)ccc2n(C)c1=O`, the Potency was inactive: > 76.9 µM.
Regarding `CCC(C)(C)n1nnnc1C(C(C)C)N1CCC(C(N)=O)CC1` (stereo unspecified), the Potency is inactive: > 76.9 µM.
Turning to `O=C1c2ccccc2S(=O)(=O)N1Cc1nnc(-c2ccccc2Br)o1`, the Potency was inactive: > 76.9 µM.
In the case of `CC(C)(C)NC(=O)CN(C(=O)CS(=O)CC(=O)Nc1ccc(F)cc1)c1ccc(F)c(Cl)c1` (stereo unspecified), the Potency entry was “inactive”.
Turning to `CCN(CC)CCNC(=O)c1c(O)c2cccc3c2n(c1=O)CCC3`, the Potency was inactive: > 76.9 µM.
With `CCOC(=O)N1CCC(NC(=O)c2ccc(CNS(=O)(=O)c3ccc(F)cc3)cc2)CC1`, the Potency is inactive: > 76.9 µM.
To `COc1ccc(S(=O)(=O)Nc2ccc3c(c2)OCO3)cc1OC` belongs inactive: > 76.9 µM.
To `CCS(=O)(=O)N1CCN(c2nc(-c3ccccc3)cs2)CC1` belongs inactive: > 76.9 µM; to `CC(C)(C)n1nnnc1C(c1cc2cc3c(cc2[nH]c1=O)OCCO3)N1CCSCC1` (stereo unspecified), inactive: > 76.9 µM; to `O=C(Cn1nnc2ccccc2c1=O)NC1CCCc2ccccc21` (stereo unspecified), inactive: > 76.9 µM.
Turning to `CCCNC(=O)c1n[nH]c(=O)c2ccccc12`, the Potency was inactive: > 76.9 µM.
`CNC(=O)c1c(C)nc(SCC(=O)NCc2ccc(OC)cc2)c(C#N)c1-c1ccco1`: the Potency is inactive: > 76.9 µM.
The result for `CCOC(=O)N1CCN(C(=O)C2CC(c3ccccc3OC)=NO2)CC1` (stereo unspecified) reads inactive: > 76.9 µM; that for `CCC(C)N1CC23C=CC(O2)C(C(=O)OCc2ccccc2)C3C1=O` (stereo unspecified), inactive: > 76.9 µM; that for `CCOc1nc(-c2ccc(OC)cc2)ccc1-c1noc(-c2cccnc2)n1`, inactive: > 76.9 µM.
Consider `CCCOc1ccc(-c2nnn(CC(=O)Nc3cccc(C(=O)OC)c3)n2)cc1`, for which the Potency is inactive: > 76.9 µM.
The result for `CCN(CC)S(=O)(=O)c1ccc2[nH]cc(C(=O)NCCN3CCCCCC3)c(=O)c2c1` reads inactive: > 76.9 µM; that for `Cn1ccnc1SCC(=O)Nc1sccc1C#N`, inactive: > 76.9 µM; that for `N#CCSc1nnc(COc2ccc3ccccc3c2)o1`, inactive: > 76.9 µM.
The result for `CCn1nnc(NC(=O)c2cc(Cl)c(OC)c(Cl)c2)n1` reads inactive: > 76.9 µM; that for `C[C@H](NC(=O)NCCc1ccccc1)C(=O)O`, inactive: > 76.9 µM.
For `CCn1ncc2c(OCc3ccc(C#N)cc3)cc(C)nc21`, the Potency was inactive: > 76.9 µM.
Take `C1=CCC(/C=N/n2cnnc2)CC1` (stereo unspecified): the Potency was inactive: > 76.9 µM.
The result for `COc1ccc(C2=NOC(C(=O)NCc3ccccc3)C2)cc1` (stereo unspecified) reads inactive: > 76.9 µM; that for `COc1ccc(N2CCN(CCCNC(=O)C3(S(=O)(=O)c4ccc(Cl)cc4)CC3)CC2)cc1`, inactive: > 76.9 µM.
As for `CC(=O)NC12CC3CC(C1)CC(C(=O)OCC(=O)Nc1ncc(Cl)cc1Cl)(C3)C2`, the Potency was inactive: > 76.9 µM.
As for `COc1ccc(-c2nc(CN3CCC(C(=O)NC(C)C)CC3)c(C)o2)cc1OC`, the Potency was inactive: > 76.9 µM.
On to `O=S(=O)(c1ccc2oc3ccc(S(=O)(=O)N4CCCC4)cc3c2c1)N1CCCC1`, for which the Potency is inactive: > 76.9 µM.
Consider `Cc1ccc(S(=O)(=O)N2CCN(C(=O)c3ccccc3)C2C(C)C)cc1` (stereo unspecified), for which the Potency is inactive: > 76.9 µM.
Turning to `O=C(CSc1nnc2c3cc(F)ccc3nc(-c3ccccc3)n12)N1CCOCC1`, the Potency is inactive: > 76.9 µM.
To `COc1cccc(C(=O)SC2=NCCS2)c1` belongs inactive: > 76.9 µM.
Take `CCN1C(=O)C2(C(C#N)=C(N)Oc3n[nH]c(COC)c32)c2ccccc21` (stereo unspecified): the Potency is inactive: > 76.9 µM.
The result for `O=C(CSc1ncnc2sc3c(c12)CCCCC3)NCc1ccco1` reads inactive: > 76.9 µM; that for `O=C(Nc1nc(SCc2ccc(F)cc2)ns1)c1ccco1`, inactive: > 76.9 µM; that for `O=C(NC1CCN(C(=O)N2CCOCC2)CC1)c1ccccc1`, inactive: > 76.9 µM.
The result for `O=C(Cc1cn2ccsc2n1)Nc1ccccn1` reads inactive: > 76.9 µM.
The result for `O=C(Nc1ccc(N2CCN(C(=O)c3ccco3)CC2)cc1)c1ccc(F)cc1` reads inactive: > 76.9 µM.
Consider `CCn1cc(S(=O)(=O)CC(=O)Nc2ccc3c(c2)OCCO3)c2ccccc21`, for which the Potency is inactive: > 76.9 µM.
For the molecule `CCCOc1ccc(CC(=O)NCc2ccco2)cc1OC`, the Potency is inactive: > 76.9 µM.
Turning to `Cn1c(SCC2CCCO2)nnc1-c1ccncc1` (stereo unspecified), the Potency was inactive: > 76.9 µM.
As for `CC(O)COc1ccc(/C(=N/O)c2ccccc2)cc1` (stereo unspecified), the Potency was inactive: > 76.9 µM.
To `COc1ccc(-n2nnnc2SCC(=O)c2cccc(OC)c2)cc1` belongs inactive: > 76.9 µM.
Regarding `Cc1cccc(C)c1OCc1nnc(SCC(=O)NCc2ccccc2)o1`, the Potency is inactive: > 76.9 µM.
To `O=C(O)C1CC=CCC1C(=O)Nc1ccc(S(=O)(=O)N2CCCc3ccccc32)cc1` (stereo unspecified) belongs inactive: > 76.9 µM; to `CCOc1cc(C)c(C(C)C)cc1S(=O)(=O)N1CCOCC1`, inactive: > 76.9 µM; to `Cn1c(C(=O)N2CCc3ccccc3C2)cc2c(=O)n3ccccc3nc21`, inactive: > 76.9 µM.
On to `COc1ccc(-c2nnc(SCCC(=O)O)n2-c2ccccc2)cc1`, for which the Potency is inactive: > 76.9 µM.
To `Cc1ccc(S(=O)(=O)O)c(C)c1N1CCCC1=O` belongs inactive: > 76.9 µM; to `N#CCCNc1ccc(OCCC#N)cc1`, inactive: > 76.9 µM.
To `COC(=O)CCCC(=O)Nc1ccc(Cl)c(Cl)c1` belongs inactive: > 76.9 µM; to `CCN(CC)S(=O)(=O)c1cccc(C(=O)NC2CCCCC2)c1`, inactive: > 76.9 µM; to `Cc1c(NC(=O)c2nn(C)c(=O)c3ccccc23)c(=O)n(-c2ccccc2)n1C`, inactive: > 76.9 µM.
For the molecule `Cc1cccc(-c2ccc(C=Nc3c(C)n(C)n(-c4ccccc4)c3=O)o2)c1`, the Potency was inactive: > 76.9 µM.
`O=C(O)C1CCN1C1CCCCC1` (stereo unspecified): the Potency was inactive: > 76.9 µM.
The result for `Cc1ccc2nc(SC(C)C(=O)N3CCCC3)[nH]c2c1` (stereo unspecified) reads inactive: > 76.9 µM; that for `COC(=O)c1ccc(NC(=O)CS(=O)(=O)Cc2ccccc2)cc1`, inactive: > 76.9 µM; that for `CCOc1ccccc1NC(=O)CN(c1ccc(OC)cc1)S(=O)(=O)c1c(C)noc1C`, inactive: > 76.9 µM.
With `COC(=O)c1ccc2nc(NC(=O)CN3C(=O)CCC3=O)sc2c1`, the Potency was inactive: > 76.9 µM.
The result for `CCc1nnc(NC(=O)CSc2nnc(COc3ccc(C#N)cc3)n2-c2ccccc2)s1` reads inactive: > 76.9 µM.
Take `COCCn1nnnc1C(c1ccc(OC)c(OC)c1)N1CCc2ccccc21` (stereo unspecified): the Potency was inactive: > 76.9 µM.
Turning to `CCNC(=O)c1cc2c(=O)n3cccc(C)c3nc2n1C`, the Potency is inactive: > 76.9 µM.
To `COc1ccc(C(C)C)cc1S(=O)(=O)NCc1ccccn1` belongs inactive: > 76.9 µM; to `CC(C)(C)NC(=O)CN(C(=O)C1(C)CC(=O)N=C2C=CC=CN21)C1CCCC1` (stereo unspecified), inactive: > 76.9 µM; to `CC(C(=O)O)N1C(=O)c2cccc3cccc1c23` (stereo unspecified), inactive: > 76.9 µM.
The result for `N#Cc1c2ncn(CC(=O)c3ccc(Br)cc3)c(=O)c2c2n1CCC2` reads inactive: > 76.9 µM; that for `CCC(=O)N1CCc2cc(S(=O)(=O)NCCC(=O)N3CCN(Cc4ccccc4)CC3)ccc21`, inactive: > 76.9 µM.
For the molecule `COc1ccc(NC(=O)C2C3C=CC4(CN(Cc5cccnc5)C(=O)C24)O3)c(OC)c1` (stereo unspecified), the Potency is inactive: > 76.9 µM.
To `CC(C)CCN1CC(C(=O)N2CCN(c3ccc(F)cc3)CC2)CC1=O` (stereo unspecified) belongs inactive: > 76.9 µM; to `CCOc1ccccc1-c1nc(-c2cc3ccc(C)cc3[nH]c2=O)no1`, inactive: > 76.9 µM.
Consider `COc1ccc(-c2noc(CN3CCC(Cc4ccccc4)CC3)n2)cc1`, for which the Potency was inactive: > 76.9 µM.
The result for `O=C(O)CCc1ccc(-c2ccc(Br)cc2)o1` reads inactive: > 76.9 µM; that for `CCC(C)NC(=O)CC(NS(=O)(=O)c1ccc(Cl)cc1)c1ccco1` (stereo unspecified), inactive: > 76.9 µM.
To `O=C(CSc1nnc(Cc2cccs2)n1-c1ccccc1)NC1CCCCC1` belongs inactive: > 76.9 µM.
The result for `C=CCN1C(=O)C2(C(C#N)=C(N)Oc3n[nH]c(CCC)c32)c2ccccc21` (stereo unspecified) reads inactive: > 76.9 µM; that for `O=C(CSC1=NCCS1)N1CCOCC1`, inactive: > 76.9 µM.
